Reference: US20170198196A1, “METHODS FOR CONTROLLING SOURING IN ENGINEERED SYSTEMS” (The Regents of the University of California, priority 2014, published 2017)

Columns and labels:
[1] = test system: Desulfovibrio alaskensis G20; conditions: cultures of Desulfovibrio alaskensis G20
[2] = test system: Desulfovibrio alaskensis G20; assay: microbe, parasite or virus in culture; conditions: Oleidesulfovibrio alaskensis, G20, read-out: IC50 against growth of Desulfovibrio alaskensis G20

## [O-][I+3]([O-])([O-])O [periodate]
[1]
  IC50 values (in terms of growth inhibition), in words: sub-millimolar
[2]
  IC50: < 1000 µM
